# Source: the supplement of paper PMC12217912
# The other results are listed elsewhere or left out. The full chains were built here from the parent and the listed change. Values near 0.05 are background.
# B1: TEV protease; numbered along this chain (parent)
# chain: MGESLFKGPRDYNPISSSICHLTNESDGHTTSLYGIGFGPFIITNKHLFRRNNGTLVVQSLHGVFKVKDTTTLQQHLVDGRDMIIIRMPKDFPPFPQKLKFREPQREERICLVTTNFQTKSMSSMVSDTSCTFPSGDGIFWKHWIQTKDGQCGSPLVSTRDGFIVGIHSASNFTNTNNYFTSVPKNFMELLTNQEAQQWVSGWRLNADSVLWGGHKVFMVKPEEPFQPVKEATQL
# Variants of: B1
# Experiment: raw area under fraction-flipped curve 0-4 h after induction (AUC4h, not background-subtracted), DNA-recorder readout of cleavage of the substrate (dimensionless); higher = more cleavage of the substrate by the protease variant
# Conditions: temperature: 34 °C; time window: 0-4 h after rhamnose induction
# Protocol: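 In vivo DNA recorder in E. coli TOP10(DE3) ΔrhaA at 34 °C. Each TEVp single-site mutant (parent TEVp 0) is paired with a single-site variant of the 7-mer TEVs (canonical ENLYFQ|S). The substrate sits between flexible linkers in a Bxb1-sfGFP-TEVs-SsrA fusion, so cleavage stabilises Bxb1 and speeds flipping of a recombination array, read by NGS. The value is the raw area under the fraction-flipped curve over 0-4 h after rhamnose induction (AUC4h), with ≥20 reads per time point. It is not background-subtracted; inactive controls average about 0.047.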
# 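Further: Bxb1 expression induced with 0.2% (w/v) L-rhamnose at OD600 near 0.5, cultures sampled hourly, flipped fraction per protease–substrate barcode pair counted by paired-end Illumina sequencing.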
Variant,area with substrate EALYFQS,area with substrate ECLYFQS,area with substrate EDLYFQS,area with substrate EILYFQS,area with substrate EKLYFQS,area with substrate EELYFQS,area with substrate EGLYFQS,area with substrate ELLYFQS,area with substrate EQLYFQS,area with substrate ERLYFQS,area with substrate ESLYFQS,area with substrate EVLYFQS,area with substrate EWLYFQS,area with substrate EYLYFQS,area with substrate EFLYFQS,area with substrate EHLYFQS,area with substrate EMLYFQS,area with substrate EPLYFQS,area with substrate ETLYFQS
MGESLFKGPRDYNPISSSICHLTNESDGHTTSLYGIGFGPFIITNKHLFRRNNGTLVVQSLHGVFKVKDTTTLQQHLVDGRDMIIIRMPKDFPPFPQKLKFREPQREERICLVTTNFQTKSMSSMVSDTSCTFPSGDGIFWKHWIQTKDGQCGSPLVSTRDGFIVGIHSASNFTNTNNYFTSVPKNFMELLTNQEAQQWVSGWRLNADSVLWGGHKVFMVKPEEPFQPVKEFTQL [A232F],0.111,0.0438,0.126,0.0918,0.1,,,,,,,,,,,,,,
MGESLFKGPRDYNPISSSICHLTNESDGHTTSLYGIGFGPFIITNKHLFRRNNGTLVVQSLHGVFKVKDTTTLQQHLVDGRDMIIIRMPKDFPPFPQKLKFREPQREERICCVTTNFQTKSMSSMVSDTSCTFPSGDGIFWKHWIQTKDGQCGSPLVSTRDGFIVGIHSASNFTNTNNYFTSVPKNFMELLTNQEAQQWVSGWRLNADSVLWGGHKVFMVKPEEPFQPVKEATQL [L112C],0.0842,,0.0821,0.0851,0.0892,0.0783,0.0662,0.0702,0.0798,0.084,0.0687,0.0779,0.074,0.0708,,,,,
MGESLFKGPRDYNPISSSICHLTNESDGHTTALYGIGFGPFIITNKHLFRRNNGTLVVQSLHGVFKVKDTTTLQQHLVDGRDMIIIRMPKDFPPFPQKLKFREPQREERICLVTTNFQTKSMSSMVSDTSCTFPSGDGIFWKHWIQTKDGQCGSPLVSTRDGFIVGIHSASNFTNTNNYFTSVPKNFMELLTNQEAQQWVSGWRLNADSVLWGGHKVFMVKPEEPFQPVKEATQL [S32A],0.113,0.0866,0.111,0.0808,,0.113,,,0.122,0.118,0.107,0.0931,0.0846,0.0978,0.0966,,,,
MGESLFKGPRDYNPISSSICHLTNESDGHTTSLYGIGFGPFIITNKHLFRRNNGTLVVQSLHGVFKVKDTTTLQQHLVDGRDMIIIRMPKDFPPFPQKLKFREPQREERICLVTTNFQTKSMSSMVSDTSCTFPSGDGIFWKHWIQTKDGQCGSPLVSTRDGFIVGIHSASNFTNTNNYFTSVPKNFMELLTNQEAQQWVSGWRLNADSVLWGGHQVFMVKPEEPFQPVKEATQL [K216Q],0.124,0.0781,,,0.126,,,,0.0923,,0.115,0.125,0.0903,,,0.148,,,
MGESLFKGPRDYNPISSSICHLTNESDGHTTSLYGIGFGPFIITNKHIFRRNNGTLVVQSLHGVFKVKDTTTLQQHLVDGRDMIIIRMPKDFPPFPQKLKFREPQREERICLVTTNFQTKSMSSMVSDTSCTFPSGDGIFWKHWIQTKDGQCGSPLVSTRDGFIVGIHSASNFTNTNNYFTSVPKNFMELLTNQEAQQWVSGWRLNADSVLWGGHKVFMVKPEEPFQPVKEATQL [L48I],0.0931,0.0746,0.106,0.0695,0.0996,0.0758,0.0769,,0.0934,0.0858,0.0803,,0.08,0.0988,0.0897,0.0811,0.0954,0.109,
MGESLFKGPRDYNPISSSICHLTNESDGHTTSLYGIGFGPFIITNKHLFRRNNGTLVVQSLHGVFKVKDTTTLQQHLVDGRDMIIIRMPKDFPPFPQKLKFREPQREERICLVTTNFQTKSMSSMVSDTSCTFPSGDGIFWKHWIQTKDGQCGSPLVSTRDGFIVGIHSASNFTNTNNYFTSVPKNFMELLQNQEAQQWVSGWRLNADSVLWGGHKVFMVKPEEPFQPVKEATQL [T192Q],0.113,,0.0725,0.0882,0.0936,,0.0866,,,0.0496,0.102,0.121,0.114,,0.129,0.0885,,0.117,0.11
MGESLFKGPRDYNPISSSICHLTNESDGHTTSLYGIGFGPFIITNKHLFRRNNGTLVVQSLHGVFKVKDTTTLQQHLVDGRDMIIIRMPKDFPPFPQKLKFREPQREERICLVTTNFQTYSMSSMVSDTSCTFPSGDGIFWKHWIQTKDGQCGSPLVSTRDGFIVGIHSASNFTNTNNYFTSVPKNFMELLTNQEAQQWVSGWRLNADSVLWGGHKVFMVKPEEPFQPVKEATQL [K120Y],0.0955,,,0.0857,,0.0964,,0.0973,0.105,0.114,0.0912,0.0819,,0.0948,0.0924,0.1,0.101,0.156,0.103
MGESLFKGPRDYNPIDSSICHLTNESDGHTTSLYGIGFGPFIITNKHLFRRNNGTLVVQSLHGVFKVKDTTTLQQHLVDGRDMIIIRMPKDFPPFPQKLKFREPQREERICLVTTNFQTKSMSSMVSDTSCTFPSGDGIFWKHWIQTKDGQCGSPLVSTRDGFIVGIHSASNFTNTNNYFTSVPKNFMELLTNQEAQQWVSGWRLNADSVLWGGHKVFMVKPEEPFQPVKEATQL [S16D],0.117,0.0901,0.104,0.0736,0.0909,,0.1,0.084,0.0933,0.0424,0.0974,0.14,0.0762,,0.101,0.099,0.104,0.121,0.117
MGESLFKGPRDYNPIASSICHLTNESDGHTTSLYGIGFGPFIITNKHLFRRNNGTLVVQSLHGVFKVKDTTTLQQHLVDGRDMIIIRMPKDFPPFPQKLKFREPQREERICLVTTNFQTKSMSSMVSDTSCTFPSGDGIFWKHWIQTKDGQCGSPLVSTRDGFIVGIHSASNFTNTNNYFTSVPKNFMELLTNQEAQQWVSGWRLNADSVLWGGHKVFMVKPEEPFQPVKEATQL [S16A],0.138,0.107,,0.11,0.112,0.118,0.128,0.127,0.113,0.102,0.103,0.111,0.101,,0.0905,0.135,0.134,0.138,0.149
MGESLFKGPRDYNPISSSICHLTNESDGHTTSLYGIGFGPFIITNKHLFRRNNGTLVVQSLHGVFKVKDTTTLQQHLVDGRDMIIIRMPKDFPPFPQKLKFREPQREERICLVTTNFQTKSMSSMVSDTSCTFPSGDGIFWKHWIQTKDGQCGSPLVSTRDGFIVGIHSASNFTNINNYFTSVPKNFMELLTNQEAQQWVSGWRLNADSVLWGGHKVFMVKPEEPFQPVKEATQL [T176I],0.0777,0.078,0.08,0.0551,0.0684,0.0954,0.0619,0.0701,0.069,0.0652,0.0759,0.0707,0.0671,,,0.0802,0.105,0.0821,
MGESLFKGPRDYNPISSSICHLTNKSDGHTTSLYGIGFGPFIITNKHLFRRNNGTLVVQSLHGVFKVKDTTTLQQHLVDGRDMIIIRMPKDFPPFPQKLKFREPQREERICLVTTNFQTKSMSSMVSDTSCTFPSGDGIFWKHWIQTKDGQCGSPLVSTRDGFIVGIHSASNFTNTNNYFTSVPKNFMELLTNQEAQQWVSGWRLNADSVLWGGHKVFMVKPEEPFQPVKEATQL [E25K],0.172,0.115,0.122,0.0833,0.0979,0.0646,0.0833,0.0852,0.0308,0.0784,0.106,0.0895,0.0786,0.0802,0.0664,,0.103,0.0686,
MGESLFKGPRDYNPISSSICHLTNESDGHTTSLYGIGFGPFIITNKHLFRRNNGTLVVQSLHGVFKVKDTTTLQQHLVDGRDMIIIRMPKDFPPFPQKLKFREPQREERICLVTTNFQTKSMSSMVSDTSCTFPSGDGIFWKHWIQTKDGQCGSPLVSTRDGFIVGIGSASNFTNTNNYFTSVPKNFMELLTNQEAQQWVSGWRLNADSVLWGGHKVFMVKPEEPFQPVKEATQL [H168G],0.0543,0.0585,0.0647,,,0.0556,,,0.0585,,0.0666,,,0.0766,,,0.0781,,0.04
MGESLFKGPRDYNPISSSICHLTNESDGHTTSLYGIGFGPFIITNKHLFRRNNGTLVVQSLHGVFKVKDTTTLQQHLVDGRDMIIIRMPKDFPPFPQKLKFREPQREERICLVTTNFQTKSMSSMVSDTSCTFPSGDGIFWKHWIQTKDGQCGSPLVSTRDGFIVGIDSASNFTNTNNYFTSVPKNFMELLTNQEAQQWVSGWRLNADSVLWGGHKVFMVKPEEPFQPVKEATQL [H168D],0.0585,0.0576,0.0614,0.0532,0.0607,0.0528,,,0.0507,0.0589,0.0578,0.0609,0.0544,0.0578,0.0649,0.0594,0.0511,0.0592,0.0462
MGESLFKGPRDYNPISSSICHLTNESDGHTTSLYGIGFGPFIITNKHLFRRNNGTLVVQSLHGVFKVKDTTTLQQHLVDGRDMIIIRMPKDFPPFPQKLKFREPQREERICLVTTNFQTKSMSSMVSDTSCTFPSGDGIFWKHWIQTKDGQCGSPLVSTRDGFIVGIQSASNFTNTNNYFTSVPKNFMELLTNQEAQQWVSGWRLNADSVLWGGHKVFMVKPEEPFQPVKEATQL [H168Q],0.0675,0.0583,0.0692,,0.0538,0.0916,,0.0607,0.0701,0.094,0.0674,,0.0556,0.0354,0.0687,0.0944,,0.0765,
MGESLFKGPRDYNPISSSICHLTNESDGHTTSLYGIGFGPFIITNKHLFRRNNGTLVVQSLHGVFKVKDTTTLQQHLVDGRDMIIIRMPKDFPPFPQKLKFREPQREERICLVTTNFQTKSMSSMVSDTSCTFPSGDGIFWGHWIQTKDGQCGSPLVSTRDGFIVGIHSASNFTNTNNYFTSVPKNFMELLTNQEAQQWVSGWRLNADSVLWGGHKVFMVKPEEPFQPVKEATQL [K142G],0.0887,0.0814,0.0821,,0.0728,0.081,0.0797,0.0566,0.0804,0.0677,0.0794,0.0731,0.049,,0.128,0.0687,0.082,0.0893,0.0898
MGESLFKGPRDYNPISSSICHLTNESDGHTTSLYGIGFGPFIITNKHLFRRNNGTLVVQSLHGVFKVKDTTTLQQHLVDGRDMIIIRMPKDFPPFPQKLKFREPQREERICLVTTNFQTKSMSSMVSDTSCTFPSGDGIFWKHRIQTKDGQCGSPLVSTRDGFIVGIHSASNFTNTNNYFTSVPKNFMELLTNQEAQQWVSGWRLNADSVLWGGHKVFMVKPEEPFQPVKEATQL [W144R],0.0709,0.102,0.0922,0.0658,,,,,0.103,0.0924,,0.0593,0.0734,,,,0.0892,,0.108
MGESLFKGPRDYNPISSSICHLTNESDGHTTSLYGIGFGPFIITNKHLFRRNNGTLVVQSLHGVFKVKDTTTLQQHLVDGRDMIIIRMPKDFPPFPQKLKFREPQREERICLVTTNFQTKSMSSMVSDTSCTFPSGDGIRWKHWIQTKDGQCGSPLVSTRDGFIVGIHSASNFTNTNNYFTSVPKNFMELLTNQEAQQWVSGWRLNADSVLWGGHKVFMVKPEEPFQPVKEATQL [F140R],0.0577,0.0609,0.0492,0.0736,0.0586,0.0558,0.0661,0.0713,0.0563,0.0567,0.0629,0.065,0.0278,,0.0504,0.0961,0.0532,0.0593,0.0606
MGESLFKGPRDYNPISSSICHLTNESDGHTTSLYGIGFGPFIITNKHLFRRNNGTLVVQSLHGVFKVKDTTTLQQHLVDGRDMIIIRMPKDFPPFPQKLKFREPQREERICLVTTNFQTKSMSSMVSDTSCTFPSGDGIFWKHWIQTKMGQCGSPLVSTRDGFIVGIHSASNFTNTNNYFTSVPKNFMELLTNQEAQQWVSGWRLNADSVLWGGHKVFMVKPEEPFQPVKEATQL [D149M],0.0911,0.108,0.191,0.0721,0.0884,0.102,0.0897,,0.0974,0.0849,0.0711,0.0748,0.0641,0.0963,0.0902,0.108,0.0784,,0.0884
